Some of the results follow. The energies were worked out here from pooled read counts, against the library average; single values are noisy.

The target of the experiment is T1, Pho4 (S. cerevisiae) (UniProt P07270).
T1 sequence: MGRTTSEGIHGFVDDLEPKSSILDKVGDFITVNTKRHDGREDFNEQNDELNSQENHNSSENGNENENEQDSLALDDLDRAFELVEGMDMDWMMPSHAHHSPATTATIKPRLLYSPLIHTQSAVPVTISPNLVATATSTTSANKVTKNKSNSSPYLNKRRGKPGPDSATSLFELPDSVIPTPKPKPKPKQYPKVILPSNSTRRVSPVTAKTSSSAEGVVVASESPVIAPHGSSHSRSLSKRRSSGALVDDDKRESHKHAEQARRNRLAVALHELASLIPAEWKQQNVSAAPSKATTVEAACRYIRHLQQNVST
Put plainly: relative binding free energy (BET-seq); higher = weaker binding. Particulars: reference: library average.
As to TTATGCACGTGGAAGG, the “relative binding free energy” value was -0.03 kcal/mol.
On to GTAATCACGTGGCGTA, for which the “relative binding free energy” value was found to be 0.16 kcal/mol.
In the case of TGGTTCACGTGGATAG it was 0.34 kcal/mol.
Consider TTTATCACGTGGATGT, for which the “relative binding free energy” value was determined as 0.12 kcal/mol.
In the case of GTACACACGTGAGGGG, the “relative binding free energy” value is 0.18 kcal/mol.
In the case of TGAATCACGTGGTGCG it was 0.1 kcal/mol; in that of TGTTTCACGTGTCTCT, 0.21 kcal/mol; in that of GTTGACACGTGAATTG, 0.36 kcal/mol.
In the case of GCTTGCACGTGCTTTG, the “relative binding free energy” value came out at 0.05 kcal/mol.
As to GCAGGCACGTGTTTGT, the “relative binding free energy” value was -0.07 kcal/mol.
With ATTTTCACGTGCATTT, the “relative binding free energy” value amounted to 0.21 kcal/mol.
TGTCCCACGTGTTGGA: the “relative binding free energy” value is -0.08 kcal/mol.
As for CTGGGCACGTGAATTT, the “relative binding free energy” value came out at 0.24 kcal/mol.
Turning to ATAGTCACGTGGTGGA, the “relative binding free energy” value is -0.12 kcal/mol.
Turning to CTTTTCACGTGGGGAC, the “relative binding free energy” value was found to be 0.31 kcal/mol.
On to CGTTGCACGTGTGGCT, for which the “relative binding free energy” value was -0.07 kcal/mol.
For AAGTACACGTGTTTTT, the “relative binding free energy” value turned out to be 0.15 kcal/mol.
As to TTGTACACGTGATCGT, the “relative binding free energy” value was 0.03 kcal/mol.
On to TTGGCCACGTGGACGG, for which the “relative binding free energy” value is -0.12 kcal/mol.
Take TTGACCACGTGCGGGG: the “relative binding free energy” value is -0.08 kcal/mol.
With TGGGACACGTGTAAAG, the “relative binding free energy” value is 0.08 kcal/mol.
Consider GATAACACGTGTTGGT, for which the “relative binding free energy” value worked out at 0.1 kcal/mol.
The result for AGGGTCACGTGGGTTC reads 0.11 kcal/mol.
Consider AGTTCCACGTGGGATG, for which the “relative binding free energy” value was 0.15 kcal/mol.
For GGGGTCACGTGGGCTA, the “relative binding free energy” value was -0.02 kcal/mol.
TGTAGCACGTGAAATG: the “relative binding free energy” value amounted to 0.32 kcal/mol.
On to TTGAACACGTGGAGAG, for which the “relative binding free energy” value was 0.12 kcal/mol.
GATTGCACGTGTCTTG: the “relative binding free energy” value came to 0.17 kcal/mol.
As to CGTGTCACGTGGTAAA, the “relative binding free energy” value was found to be 0.03 kcal/mol.
Regarding TTGTACACGTGTTAGA, the “relative binding free energy” value is 0.11 kcal/mol.
As to TGGTTCACGTGAACTT, the “relative binding free energy” value was 0.33 kcal/mol.
The result for TCGATCACGTGAGTTT reads 0.33 kcal/mol; that for TTGAACACGTGTAATT, 0.07 kcal/mol; that for AGGATCACGTGTCGTA, 0.15 kcal/mol.
As for CGGCGCACGTGTTTGG, the “relative binding free energy” value was -0.06 kcal/mol.
Take TTGTCCACGTGTCGTT: the “relative binding free energy” value came to 0.11 kcal/mol.
TTAATCACGTGCTTAG: the “relative binding free energy” value was 0.15 kcal/mol.
The result for GCTTGCACGTGGGATG reads -0.09 kcal/mol; that for GTTAACACGTGGTTGC, -0.06 kcal/mol.
As to TTGCTCACGTGGCGGT, the “relative binding free energy” value was 0.23 kcal/mol.
Turning to GGATACACGTGCGTGG, the “relative binding free energy” value came to 0.01 kcal/mol.
In the case of GGTGTCACGTGAAGGA it was 0.41 kcal/mol.
As for CAGTTCACGTGCAGGT, the “relative binding free energy” value was 0.35 kcal/mol.
In the case of AATGTCACGTGCGGAG, the “relative binding free energy” value was 0.03 kcal/mol.
In the case of TTGAGCACGTGCATGT it was -0.12 kcal/mol; in that of GCTTACACGTGTTGGG, 0.09 kcal/mol.
In the case of TCGGACACGTGATGGT, the “relative binding free energy” value came out at 0.24 kcal/mol.
Consider AGGTACACGTGGTTGG, for which the “relative binding free energy” value was found to be 0 kcal/mol.
Turning to TGCGGCACGTGTAAGT, the “relative binding free energy” value is -0.11 kcal/mol.
With TGTTCCACGTGAGTAT, the “relative binding free energy” value is 0.08 kcal/mol.
For the sequence TTACGCACGTGGTATG, the “relative binding free energy” value is -0.25 kcal/mol.
The result for TGAAACACGTGTGTTC reads 0.05 kcal/mol.
As for TATTCCACGTGGGCGG, the “relative binding free energy” value is -0.1 kcal/mol.
In the case of GTTCGCACGTGGGTCT, the “relative binding free energy” value is -0.12 kcal/mol.
TATCGCACGTGGTTTG: the “relative binding free energy” value was -0.19 kcal/mol.
For GCGGGCACGTGGAATA, the “relative binding free energy” value stood at 0.03 kcal/mol.
Turning to ACTGGCACGTGGGTGC, the “relative binding free energy” value was -0.19 kcal/mol.
In the case of GTTAGCACGTGCTTAT, the “relative binding free energy” value is -0.03 kcal/mol.
As for ACAGGCACGTGGGGTA, the “relative binding free energy” value was -0.34 kcal/mol.
In the case of ACGGTCACGTGCGGCG, the “relative binding free energy” value is 0.11 kcal/mol.
For GCGCTCACGTGGGTTT, the “relative binding free energy” value came to 0.06 kcal/mol.
In the case of ATGGGCACGTGTATTG it was -0.04 kcal/mol; in that of TTGAGCACGTGTGTTA, -0.06 kcal/mol; in that of GTCGCCACGTGAGGGT, 0.03 kcal/mol.
AGATGCACGTGAATTT: the “relative binding free energy” value was found to be 0.2 kcal/mol.
On to GCTTTCACGTGGTAGT, for which the “relative binding free energy” value was determined as 0.26 kcal/mol.
Take GAGTTCACGTGTCGGG: the “relative binding free energy” value was 0.5 kcal/mol.
The result for CAAAGCACGTGCTGGG reads 0.12 kcal/mol.
Regarding GATAGCACGTGGGGGC, the “relative binding free energy” value was -0.12 kcal/mol.
For the sequence CCGTTCACGTGTTGTA, the “relative binding free energy” value was 0.31 kcal/mol.
In the case of AAGGACACGTGGGTAG it was -0.16 kcal/mol.
For the sequence ATCTACACGTGGTAGG, the “relative binding free energy” value was determined as 0.08 kcal/mol.
As for GAGGTCACGTGATATG, the “relative binding free energy” value amounted to 0.16 kcal/mol.
In the case of CGGGCCACGTGTTGGG, the “relative binding free energy” value was -0.02 kcal/mol.
As for TTGTTCACGTGGGATG, the “relative binding free energy” value turned out to be 0.3 kcal/mol.
The result for TGAGGCACGTGATTTG reads 0.01 kcal/mol; that for ACGGGCACGTGTATTG, -0.12 kcal/mol; that for CGTTTCACGTGTCGTT, 0.21 kcal/mol.
The result for GACATCACGTGGGTGT reads 0.15 kcal/mol.
Turning to TAATTCACGTGTGTTA, the “relative binding free energy” value was 0.4 kcal/mol.
Consider ATTACCACGTGTGTTT, for which the “relative binding free energy” value was -0.13 kcal/mol.
TTGTGCACGTGAGGTC: the “relative binding free energy” value came to 0.25 kcal/mol.
In the case of GCGCGCACGTGGGATG, the “relative binding free energy” value was -0.11 kcal/mol.
On to ATTTGCACGTGGCGCA, for which the “relative binding free energy” value was -0.07 kcal/mol.
Regarding GGATACACGTGTTTGT, the “relative binding free energy” value was determined as 0.03 kcal/mol.
The result for TGGGGCACGTGATGCT reads 0.07 kcal/mol; that for TTTGTCACGTGGAACT, 0.16 kcal/mol; that for AGTGACACGTGAGGAG, 0.1 kcal/mol.
Consider ATGAGCACGTGCGGAG, for which the “relative binding free energy” value was -0.13 kcal/mol.
Consider CTTGGCACGTGTGATA, for which the “relative binding free energy” value turned out to be 0 kcal/mol.
On to TGTCGCACGTGATGTT, for which the “relative binding free energy” value is -0.03 kcal/mol.
With TATATCACGTGCGGGC, the “relative binding free energy” value was 0.07 kcal/mol.
For GTGGGCACGTGGTTTA, the “relative binding free energy” value was found to be 0 kcal/mol.
The result for TTTGTCACGTGCAGGG reads 0.09 kcal/mol; that for TGAGGCACGTGTGCGG, -0.12 kcal/mol.
Turning to TTTTACACGTGGCGTA, the “relative binding free energy” value amounted to 0.15 kcal/mol.
The result for CGGGTCACGTGGGAGC reads 0.03 kcal/mol; that for GGTATCACGTGTCTTA, 0.23 kcal/mol.
Regarding CGGGTCACGTGTTTTG, the “relative binding free energy” value is 0.12 kcal/mol.
For ATGCACACGTGGTGAG, the “relative binding free energy” value was 0.13 kcal/mol.
In the case of TTATGCACGTGAATTG it was 0.27 kcal/mol.
In the case of ACGTGCACGTGTAGTG it was -0.04 kcal/mol; in that of AATTGCACGTGTGGAT, 0.08 kcal/mol; in that of TTACGCACGTGGGATT, -0.26 kcal/mol.
Regarding TGGGCCACGTGTTGGT, the “relative binding free energy” value was 0.05 kcal/mol.
As for TTGTGCACGTGGCGGG, the “relative binding free energy” value is -0.06 kcal/mol.
With GTTAGCACGTGATAAG, the “relative binding free energy” value was determined as 0.1 kcal/mol.
Consider GTTGACACGTGATGAT, for which the “relative binding free energy” value was found to be 0.19 kcal/mol.
Consider TGTGACACGTGGGATT, for which the “relative binding free energy” value worked out at 0.03 kcal/mol.
With TTGTTCACGTGTTTAT, the “relative binding free energy” value turned out to be 0.2 kcal/mol.
In the case of AGTTGCACGTGCAGTA it was -0.06 kcal/mol.
In the case of AATCGCACGTGGGTAT it was -0.13 kcal/mol; in that of GGCGACACGTGTTTTT, 0.16 kcal/mol; in that of TATATCACGTGTGTGT, 0.13 kcal/mol.
For TGCGCCACGTGTGGTA, the “relative binding free energy” value was -0.04 kcal/mol.
As to ATGGACACGTGAATGG, the “relative binding free energy” value was 0.31 kcal/mol.
Regarding GCAATCACGTGTTGTT, the “relative binding free energy” value stood at 0.11 kcal/mol.
The result for TGGGGCACGTGTGGAG reads 0 kcal/mol; that for TATATCACGTGATTGT, 0.29 kcal/mol; that for ATGGCCACGTGTCTGT, 0.02 kcal/mol.
Take GGCGCCACGTGTGAGG: the “relative binding free energy” value was -0.05 kcal/mol.
Consider TGACTCACGTGGAGGA, for which the “relative binding free energy” value is 0.23 kcal/mol.
CCTGGCACGTGTTTTG: the “relative binding free energy” value stood at 0.02 kcal/mol.
Regarding GGTACCACGTGGGCGT, the “relative binding free energy” value is -0.08 kcal/mol.
In the case of GAAGTCACGTGTACGG it was 0.2 kcal/mol.
For the sequence ATCGACACGTGTTAGT, the “relative binding free energy” value was 0.06 kcal/mol.
For the sequence CAGTTCACGTGGGCGG, the “relative binding free energy” value turned out to be 0.07 kcal/mol.
Turning to AGGGGCACGTGTCTTA, the “relative binding free energy” value was -0.17 kcal/mol.
In the case of GGTCGCACGTGTAGTG it was 0.17 kcal/mol; in that of AAAATCACGTGGATGT, 0.08 kcal/mol; in that of GACGTCACGTGATGGG, 0.26 kcal/mol.
As to TTGGCCACGTGGTGGC, the “relative binding free energy” value was -0.09 kcal/mol.
TGTCTCACGTGTGCGA: the “relative binding free energy” value was 0.27 kcal/mol.
TGATGCACGTGTTGAC: the “relative binding free energy” value is -0.07 kcal/mol.
As to TGTAGCACGTGTATTT, the “relative binding free energy” value was -0.05 kcal/mol.
Consider GAGTGCACGTGGTGGT, for which the “relative binding free energy” value is -0.05 kcal/mol.
Turning to GAGAGCACGTGTGTGA, the “relative binding free energy” value is -0.1 kcal/mol.
For GGTTGCACGTGGGGGC, the “relative binding free energy” value is -0.02 kcal/mol.
In the case of AGAGGCACGTGCGGAT it was -0.13 kcal/mol.
Turning to CTGTGCACGTGGTCCG, the “relative binding free energy” value is -0.02 kcal/mol.
Turning to CGCGGCACGTGCGTTT, the “relative binding free energy” value is -0.03 kcal/mol.
As to CGCGGCACGTGTGGTT, the “relative binding free energy” value was -0.07 kcal/mol.
Turning to TGATTCACGTGGAAGG, the “relative binding free energy” value is 0.26 kcal/mol.
As for CGCGGCACGTGGAGAG, the “relative binding free energy” value is -0.07 kcal/mol.
On to ACGGGCACGTGGGATA, for which the “relative binding free energy” value is -0.2 kcal/mol.
As to TTGTACACGTGCTGAT, the “relative binding free energy” value is 0.01 kcal/mol.
